Data: PubChem BioAssay AID588591 (National Center for Advancing Translational Sciences (NCATS), 2011)
Where “and” joins values, the source holds several entries; their conditions need not be identical. Equal entries are not always repeated. Hit rate of the full screen: of about 390,000 compounds, about 4,700 (1.2%) were called active. Roughly 4% stayed inconclusive and do not appear here. The call rests on the fitted dose curve; in most records, active means well fitted inhibition curve with a large enough effect; inconclusive means small, poorly fitted or top-dose-only effect, or another doubt; inactive means no such curve, though single readings can be large or run the other way. The list shows a part of the results, in another mix than the full data. Where a structure was tested more than once in an assay, its records may differ in their call.

Biological target: DNA polymerase eta (Homo sapiens) (UniProt Q9Y253)
Chain of UniProt Q9Y253 (Q9Y253 whole entry, looked up): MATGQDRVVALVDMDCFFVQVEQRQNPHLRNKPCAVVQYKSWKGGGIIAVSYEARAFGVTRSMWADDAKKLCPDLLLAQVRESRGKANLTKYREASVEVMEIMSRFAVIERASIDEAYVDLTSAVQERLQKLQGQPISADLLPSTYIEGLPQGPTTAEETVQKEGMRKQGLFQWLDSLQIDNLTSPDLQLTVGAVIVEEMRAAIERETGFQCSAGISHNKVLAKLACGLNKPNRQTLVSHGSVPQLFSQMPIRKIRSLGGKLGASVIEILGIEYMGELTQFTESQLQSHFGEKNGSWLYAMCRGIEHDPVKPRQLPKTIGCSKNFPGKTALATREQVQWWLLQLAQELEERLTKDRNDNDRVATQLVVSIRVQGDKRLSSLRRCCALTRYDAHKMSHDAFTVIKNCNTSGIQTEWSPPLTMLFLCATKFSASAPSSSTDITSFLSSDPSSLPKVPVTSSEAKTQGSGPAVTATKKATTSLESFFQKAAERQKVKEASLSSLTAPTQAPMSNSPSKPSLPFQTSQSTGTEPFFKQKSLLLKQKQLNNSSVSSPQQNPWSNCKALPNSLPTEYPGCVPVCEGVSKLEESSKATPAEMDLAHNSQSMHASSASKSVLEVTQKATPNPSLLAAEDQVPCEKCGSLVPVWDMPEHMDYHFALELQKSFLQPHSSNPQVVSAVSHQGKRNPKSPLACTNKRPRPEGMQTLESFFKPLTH
Assay: qHTS for Inhibitors of Polymerase Eta
Conditions: recombinant Pol eta, fluorescent DNA replication assay; series mostly up to 114 µM; activity change, negative = inhibition: at the top concentration
In short: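 Fluorescent replication assay: 50 nM final substrate added after a 15 min room-temperature compound preincubation with 10 nM enzyme. Signal taken at 0 min and again at 10 min.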
On the % scale 0 is the no-effect control and ±100 the full control effect; potency means the concentration at half of the fitted maximal effect.

| Structure (SMILES) | Potency | activity change, negative = inhibition |
| --- | --- | --- |
| COc1cccc(N2CC(C(=O)Nc3nnc(SCC(=O)NCc4ccco4)s3)CC2=O)c1 (configuration not stated) | active: 31.6 µM |  |
| CCOC(=O)C1CCN(C(=O)Nc2ccc3nc(-c4ccco4)c(-c4ccco4)nc3c2)CC1 | active: 2.82 µM |  |
| N#C/C(=C\c1ccc(-c2ccccc2C(=O)O)o1)c1nc2ccccc2[nH]1 |  | inactive: -10% |
| CCOc1ccc(N=C(/C(C(=O)C(=O)N2CCOCC2)=C(/O)c2ccccc2)c2ccccc2)cc1 |  | inactive: -18% |
| COCCNC(=O)C(c1ccco1)N(C(=O)Cn1nnc2ccccc21)c1ccccc1C (configuration not stated) |  | inactive: -6.87% |
| CCn1c(=O)c(-[n+]2ccccc2)c(O)c2ccccc21 |  | inactive: 9.8% |
| Cc1cccc2cc(/C=N/NC(=O)c3ccncc3)c(Cl)nc12 |  | inactive: 22.4% |
| C[C@H](NC(=O)c1nc[nH]c1C(=O)NCC(=O)OC(C)(C)C)c1ccccc1 |  | inactive: -21.7% |
| Cc1cccc(-n2c(-c3ccc(Br)o3)n[nH]c2=S)c1 |  | inactive: 25.9% |
| C/C(N)=C(/C#N)C(=O)CSc1nnc(SCc2ccc(Cl)cc2)s1 |  | inactive: 0.586% |
| CCCCCCCC/C=C\CCCCCCCC(=O)NCCO |  | inactive: -14.6% |
| O[C@H]1CN(CC2CCCCC2)[C@@H](c2ccc(Cl)cc2)C[C@@H]1n1cc(C2CC2)nn1 |  | inactive: -27.3% |
| O=C(CSc1ncccc1-c1nc2ccccc2[nH]1)NCc1ccco1 | active: 25.1 µM |  |
| C=CCn1c(SCc2nc3sc(C(=O)O)c(C)c3c(=O)[nH]2)nnc1-c1ccc(C(C)(C)C)cc1 | active: 7.08 µM |  |
| COc1ccccc1NC(=O)CN1CCN(CC(=O)Nc2ccccc2F)CC1 |  | inactive: 47.7% |
| Cc1cccc(N2C(=O)CC(n3ccnc3)C2=O)c1C (configuration not stated) |  | inactive: 17.9% |
| Cc1cc(C)cc(NC(=O)Cn2nnc(C(=O)NCc3ccco3)c2N)c1 |  | inactive: -16.2% |
| COc1ccc(C2c3c(-c4ccccc4O)n[nH]c3C(=O)N2Cc2ccco2)cc1 (configuration not stated) |  | inactive: -8.54% |
| Cc1cc(/C=C2\NC(=S)NC2=O)c(C)n1-c1cccnc1 |  | inactive: -6.2% |
| CC1=CC(C)=Nc2ccccc2N1 |  | inactive: 16.1% |
| COc1cc(/C=C2/C(=N)N3C(=NC2=O)SN=C3S(=O)(=O)C(C)C)ccc1OC(=O)c1ccco1 | active: 79.4 µM |  |
| O=C(O)CCC(=O)Nc1sc2c(c1C(=O)Nc1ccccc1)CCCCC2 | inactive and active: 89.1 µM |  |
| Cc1noc(NS(=O)(=O)c2ccc(N/C=C/C(=O)c3ccc4c(c3)OCO4)cc2)c1C |  | inactive: 5.15% |

| Structure (SMILES) | Potency | activity change, negative = inhibition |
| --- | --- | --- |
| O=C(O)[C@H]1CCCC[C@H]1C(=O)Nc1ccc(S(=O)(=O)N2CCOCC2)cc1 |  | inactive: -17.8% |
| Cc1ccc(NC(=O)Cn2c(=O)n(Cc3ccco3)c(=O)c3ccccc32)c(C)c1 | inactive |  |
| CCCCN(C(=O)c1cc(-c2ccco2)nc2ccccc12)c1c(N)n(CCCC)c(=O)[nH]c1=O | active: 50.1 µM |  |
| C[N+](C)(CCCCCC[N+](C)(C)CCCN1C(=O)c2cccc3cccc(c23)C1=O)CCCN1C(=O)c2cccc3cccc(c23)C1=O |  | inactive: -6.44% |
| O=c1c(OC2OC(CO)C(O)C(O)C2OC2OC(CO)C(O)C(O)C2O)c(-c2ccc(O)cc2)oc2cc(O)cc(O)c12 (configuration not stated) | active: 11.2 µM |  |
| C=CC[C@H](CC(=O)N(CCO)Cc1ccccc1)C(=O)N[C@H](C)COC(=O)[C@@H](CC=C)Cc1ccc(F)cc1 |  | inactive: -28.9% |
| CCCCCC(=O)N1C[C@@H](n2cc(COC(=O)c3ccccc3)nn2)[C@H](O)C[C@@H]1c1ccc(OC)cc1 |  | inactive: -10.5% |
| O=C(CCCN1C(=O)/C(=C/c2cccs2)SC1=S)Nc1cc([N+](=O)[O-])ccc1O |  | inactive: -16.6% |
| CCOc1ccc(S(=O)(=O)NCC2CCCO2)c2cccnc12 (configuration not stated) |  | inactive: 15% |
| O=C(/C=C\c1ccco1)NC(=S)Nc1ccccc1O | active: 22.4 µM |  |
| O=C(/C=C/c1ccccc1Cl)Nc1ccc(S(=O)(=O)Nc2ncccn2)cc1 |  | inactive: 19% |
| CCC(CC)NC(=O)Nc1ccccc1C(F)(F)F |  | inactive: 37.1% |
| CCCCCCN1C[C@@H](n2cc(COC(=O)c3ccccc3)nn2)[C@H](O)C[C@@H]1c1ccc(Cl)cc1 |  | inactive: -16.1% |
| CC(C)NCC(O)c1ccc(O)c(O)c1 (configuration not stated) | inactive |  |
| Cc1cc(C)cc(Oc2nc3c(C)cccn3c(=O)c2/C=C(\C#N)c2nc3ccccc3[nH]2)c1 |  | inactive: 241% |
| Cc1ccn2c(Nc3ccccc3C)c(-c3ccccn3)nc2c1 |  | inactive: -25.8% |
| CN(C)c1ccc(O)c2c1CC1CC3C(N(C)C)C(=O)C(C(N)=O)=C(O)[C@@]3(O)C(=O)C1=C2O (some centres not stated) |  | inactive: -2.14% |
| CCOC(=O)c1c(NC(=O)COC(=O)c2ccc(NC(=O)CC#N)cc2)sc(C(=O)NC)c1C | active: 10 µM |  |
| O=C(NC1CC1)C1=C[C@H](c2ccc(Br)cc2)C[C@H](OCc2ccc(CO)cc2)O1 |  | inactive: -16.1% |
| N#C/C(=C/c1ccc(OC(=O)c2ccc(Br)s2)cc1)c1nc2ccccc2[nH]1 |  | inactive: -8.24% |
| COc1ccc(C)cc1NC(=O)c1cc(S(=O)(=O)N2CCOCC2)cn1C |  | inactive: -4.44% |
| O=C(O)c1ccc(-n2ncc3c2/C(=C/c2cccc([N+](=O)[O-])c2)CC3)cc1 | active: 50.1 µM |  |
| CC(=O)C1=C(O)C(=O)N(c2ccc(S(N)(=O)=O)cc2)C1c1cccc([N+](=O)[O-])c1 (configuration not stated) |  | inactive: 33.6% |

| Structure (SMILES) | Potency | activity change, negative = inhibition |
| --- | --- | --- |
| Cn1c(SCC(=O)N/N=C/C=C\c2ccccc2[N+](=O)[O-])nc2ccccc21 |  | inactive: 6.62% |
| O=C(O)CCCN1C(=O)/C(=C\c2ccco2)SC1=S | active: 20 µM |  |
| COc1ccc2oc(C(=O)Nc3ccc(N4CCOCC4)cc3)c(C)c2c1 | active: 12.6 µM |  |
| C=CCC[C@H](Cc1ccc(F)cc1)C(=O)OC[C@H](Cc1c[nH]c2ccccc12)NC(=O)[C@@H](CC=C)CC(=O)N(CCO)Cc1ccccc1 |  | inactive: -20.2% |
| CC1(CO)COC(c2ccccc2)=N1 (configuration not stated) |  | inactive: 34.9% |
| Brc1ccc2[nH]c3nc(SCCN4CCOCC4)nnc3c2c1 |  | inactive: -9.91% |
| O=S(=O)(Nc1cccc(-c2ccc(N3CCCCCC3)nn2)c1)c1ccc(F)cc1 |  | inactive: -18.7% |
| Cc1nnc(SCC(=O)Nc2sccc2C#N)s1 | active: 25.1 µM |  |
| Cc1nc2ccccc2c(=O)n1NC(=O)c1cc(Br)ccc1Cl |  | inactive: 36.4% |
| C=CCC[C@H](Cc1ccc(F)cc1)C(=O)OC[C@@H](C)NC(=O)[C@H](CC=C)CC(=O)N(CCO)Cc1ccccc1 |  | inactive: -23.6% |
| C[C@H](NC(=O)c1ncn(C)c1C(=O)N[C@@H](C)c1ccccc1)c1ccccc1 |  | inactive: -14.9% |
| O=C(Nc1ccc(NC(=O)C2CC2)nc1)c1cccnc1 |  | inactive: -9.71% |
| CCC(C)N1C(=O)/C(=C/c2c(NCCCOC(C)C)nc3c(C)cccn3c2=O)SC1=S (configuration not stated) | active: 22.4 µM |  |
| CCCCCCCCCCCCCCC[C@@H](O)[C@@H](N)CO |  | inactive: -0.148% |
| O=C(Nc1ccc(S(=O)(=O)O)cc1)c1ccc2c(c1)S(=O)(=O)c1ccccc1C2=O | active: 28.2 µM |  |
| N/C(=N\OC(=O)Nc1cccc(C(F)(F)F)c1)c1ccno1 |  | inactive: 23.4% |
| CCOc1ccc(CCNC(=O)CCCn2c(=O)c3cccn3c3cccnc32)cc1 |  | inactive: 15.6% |
| CN(C)c1ccc(P(=O)(OC2CCCCC2)C(O)c2ccccn2)cc1 (configuration not stated) |  | inactive: 31.1% |
| Cc1ccc(-c2csc(C(C#N)=C(O)CN3CCN(C(=O)c4ccco4)CC3)n2)cc1 |  | inactive: 9.87% |
| NC(=O)C1CCN(C2=C(Cl)C(=O)c3ccccc3C2=O)CC1 | active: 6.31 µM |  |
| Cc1ccc2c(n1)sc1c(-c3ccccc3)c(C#N)c(N)nc12 |  | inactive: 4.54% |
| O=C(NCc1ccco1)C1CCCN(S(=O)(=O)c2ccc(-n3cnnn3)cc2)C1 (configuration not stated) | active: 20 µM |  |
| O=C(NNc1cc(N2CCOCC2)nc(N2CCOCC2)n1)c1ccc([N+](=O)[O-])cc1 | active: 89.1 µM |  |

| Structure (SMILES) | Potency | activity change, negative = inhibition |
| --- | --- | --- |
| CCN(CC)c1ccc(/C=C2/C(=O)c3ccc(C(=O)O)cc3C2=O)cc1 | active: 3.55 µM |  |
| O=C1c2c(O)cc(O)cc2O[C@H](c2ccc(O)c(O)c2)[C@H]1O |  | inactive: 4.11% |
| CCOC(=O)/C(C#N)=C\c1c(OCC)n(CC)c2ccccc12 |  | inactive: -22.9% |
| Cc1ccc(/C=C/C(=O)Nc2ccc([N+](=O)[O-])c(NC(=O)/C=C/c3ccc(C)o3)c2)o1 | active: 8.91 µM |  |
| Oc1ccc(NCc2ccccc2OCc2ccccc2F)cc1 |  | inactive: -23.5% |
| CCOc1ccc(CNC(=O)c2cc3c(=O)n(Cc4cccs4)ccc3nc2C)cc1 |  | inactive: 15.9% |
| COc1ccc(CCC(C)Nc2ccccc2F)cc1 (configuration not stated) |  | inactive: -0.755% |
| NNC(=O)[C@@H]1C[C@@H]1c1ccccc1 |  | inactive: -19.1% |
| O=c1c(C(c2ccc(Cl)cc2)c2c(O)nc3n(c2=O)CCS3)c(O)nc2n1CCS2 | active: 89.1 µM |  |
| Cn1cc(C2=C(c3ccc(Cl)cc3Cl)C(=O)NC2=O)c2ccccc21 |  | inactive: -6.25% [at 57.1 µM] |
| O=C(CSc1ccc2ccccc2n1)Nc1nsc(-c2ccc(Cl)cc2)n1 |  | inactive: -15.5% |
| CCOc1cc(/C=C(/C#N)c2nc3ccccc3[nH]2)ccc1OCc1ccc(C(=O)O)o1 | active: 7.94 µM |  |
| NS(=O)(=O)c1ccc(CCNc2nc3c(-c4cccc(F)c4)nnn3c3ccc(Cl)cc23)cc1 | active: 89.1 µM |  |
| Cc1ccc2sc(=O)[nH]c2c1 |  | inactive: 21% |
| COc1ccc(C(=O)CC(c2ccccc2)C2C(=O)CCCC2=O)cc1 (configuration not stated) | active: 79.4 µM |  |
| O=C(c1ccc2c(c1)OCO2)N(CC1CCCO1)C1(C(=O)NC2CCCC2)CCCCC1 (configuration not stated) |  | inactive: -12.6% |
| O=C(OCc1cn([C@H]2CN(Cc3cccs3)[C@@H](c3ccccc3)C[C@@H]2O)nn1)c1ccccc1 |  | inactive: -14.5% |
| Cc1ccc(NC(CC(=O)c2ccccc2)C(=O)O)cc1Cl (configuration not stated) |  | inactive: 30.6% |
| NC(=O)c1cc[n+](CC2=C(C(=O)O)N3C(=O)[C@@H](NC(=O)C(c4ccccc4)S(=O)(=O)[O-])[C@H]3SC2)cc1 (some centres not stated) |  | inactive: -99.6% |
| COc1ccc(NC(=O)Cn2nc(C(F)(F)F)c3c2CCCC3)cc1OC |  | inactive: -26.9% |
| CCCCCC(=O)N1C[C@@H](n2cc(-c3ccc(F)cc3)nn2)[C@H](O)C[C@@H]1c1ccc(C)cc1 |  | inactive: -20.1% |
| CCCc1nc(SCC(=O)NNC(=O)c2ccc(OC)cc2)c2ccccc2n1 |  | inactive: 34.6% |
| CC(/C=C/c1ccco1)=N\NC(=O)c1cc(C)[nH]n1 | active: 79.4 µM |  |
